Here are results for 54 sequences from paper PMC7819943, “Rice protein-binding microarrays: a tool to detect cis-acting elements near promoter regions in rice”.

The other results are listed elsewhere or left out.

The assay addresses T1, OsWOX13 (Oryza sativa, UniProt Q5QMM3 1-267).
T1 sequence: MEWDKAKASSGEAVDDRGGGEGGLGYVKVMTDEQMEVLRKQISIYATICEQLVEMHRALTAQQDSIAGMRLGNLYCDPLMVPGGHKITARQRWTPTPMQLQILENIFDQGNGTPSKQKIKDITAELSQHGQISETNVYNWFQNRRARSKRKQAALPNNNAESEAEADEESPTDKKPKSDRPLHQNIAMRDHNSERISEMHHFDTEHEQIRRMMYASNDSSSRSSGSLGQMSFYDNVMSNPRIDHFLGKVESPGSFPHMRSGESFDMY
The assay is described as follows: protein-binding microarray (RPBM); PBS, 2% BSA, 51.3 ng/ul salmon testes DNA, 50 uM zinc acetate, 200 nM TF, 25 C, 1 h; high values mean tight binding. Particulars: protein: recombinant; tags: N-terminal polyhistidine and DsRed monomer fusion (pET32a); label: CyDye5-dUTP incorporated in the synthesized complementary strand; 3' TTTTT single-stranded linker to array surface; dsDNA, one strand shown. The method in brief:
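An Axon 4000B scanner gave the binding signal as per-feature fluorescence intensity in arbitrary units. This followed washing of a custom Agilent array that had been incubated for 1 h at 25 °C with 200 nM protein in PBS, 2% BSA, salmon testes DNA and 50 µM zinc acetate. The proteins were transcription factors fused at the N-terminus to polyhistidine and DsRed, expressed in E. coli BL21-CodonPlus and purified on Ni–NTA.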
On to “CCATTTTGCAATTAACAATCCAGGGTACATAATTACAGCCCGGAGTCACCTAGTGCAG”, for which the binding signal is 3750 fluorescence intensity (a.u.).
The value for “TACACTCATTATCCGACAATCAGTTCTGACATGGTTGAACCGGAGTCACCTAGTGCAG” was 3360 fluorescence intensity (a.u.); that for “TATAAATTTATAAAATATACATCATGGTTAAAATATTTTGCGGAGTCACCTAGTGCAG” was 15700 fluorescence intensity (a.u.); that for “AATTGCCAATTAATTGTTACCTGACTTGTTTGTTTAAGCACGGAGTCACCTAGTGCAG” was 44000 fluorescence intensity (a.u.).
The value for “CGTGCAAATTGGACATCCTTGTGGATGTACATAGTTTATGCGGAGTCACCTAGTGCAG” was 9070 fluorescence intensity (a.u.).
Take “GCTCAATTTTAAATGGTTAAAATTATTTCTAGAGCTCTGACGGAGTCACCTAGTGCAG”: the binding signal was 6420 fluorescence intensity (a.u.).
For “CATGTAATTTGAAGGGACAACACTAGTTTGTGAATCTGTTCGGAGTCACCTAGTGCAG” the value was 8240 fluorescence intensity (a.u.); for “GCCAATCAACAACGTGATGGCTGGCGTATCAGTAGCCATGCGGAGTCACCTAGTGCAG”, 12400 fluorescence intensity (a.u.); for “CTAAACTGGGCCTTAGAGGGAAATCATTCTTTAGGACCCCCGGAGTCACCTAGTGCAG”, 7490 fluorescence intensity (a.u.).
For “CTAGCAATCAACGTGCAATTTTGTACAAATACTCTCCTCCCGGAGTCACCTAGTGCAG” the value was 17800 fluorescence intensity (a.u.); for “GACCTGTATCAGATTGAAGCTTTGATCAACTGTTATATTGCGGAGTCACCTAGTGCAG”, 5570 fluorescence intensity (a.u.); for “CATCAACTTCTTCCCAATCAGCCGCTTCTACTACTACTAACGGAGTCACCTAGTGCAG”, 3700 fluorescence intensity (a.u.).
The value for “GCTAGATTGATATGTTAAATCTACCCTTTATGCTAAGATCCGGAGTCACCTAGTGCAG” was 45600 fluorescence intensity (a.u.); that for “TTTATTGATGCCAAAATGTTGTCAATTTCACAATTTCATGCGGAGTCACCTAGTGCAG” was 3520 fluorescence intensity (a.u.).
Take “AAGGCACATAAATAGATTGACACTATAGATAGTGGAATAGCGGAGTCACCTAGTGCAG”: the binding signal is 30100 fluorescence intensity (a.u.).
The value for “TAGCCACGTAATTTTGACAGGCTGCTCTTGCAGTTAGTGGCGGAGTCACCTAGTGCAG” was 11200 fluorescence intensity (a.u.); that for “ATAATAATTAGTCATAAAGACAAGTGCTTATGCCCACTTACGGAGTCACCTAGTGCAG” was 16700 fluorescence intensity (a.u.).
The value for “TTAATTACCGTATTCTCTCCGATTCGTATTAGATTCGTGTCGGAGTCACCTAGTGCAG” was 4490 fluorescence intensity (a.u.).
The value for “TACACAGATTGCGTGTAAATTGCGATACGAATCTTTTAAGCGGAGTCACCTAGTGCAG” was 10700 fluorescence intensity (a.u.); that for “TTAATTCATGATTTGCTACAGTGATGCTACAGTAATCAGCCGGAGTCACCTAGTGCAG” was 22100 fluorescence intensity (a.u.).
Turning to “GGTGATGGACTGATGGCTATGGTTATGTCTCTGTTGCTGTCGGAGTCACCTAGTGCAG”, the binding signal was 34400 fluorescence intensity (a.u.).
For “TGCAGTTTACACTTAAATTGATAATATAAGCATGATGTATCGGAGTCACCTAGTGCAG” the value was 14800 fluorescence intensity (a.u.).
Regarding “GATTCCCTTCTTTTCTTTGGTTGATTTCTTTCTGTATTTCCGGAGTCACCTAGTGCAG”, the binding signal was 5880 fluorescence intensity (a.u.).
For “CACTAACCCTAATAATTACACCGCTGTACATTTGAAAGGACGGAGTCACCTAGTGCAG” the value was 4090 fluorescence intensity (a.u.); for “ATTGATTGGCCCAAGATATCCATCGGCATCGGCGCCGGCGCGGAGTCACCTAGTGCAG”, 13900 fluorescence intensity (a.u.); for “TGGTATGATTTGAAATGGTATTAATCTGAATTGTCCCTAACGGAGTCACCTAGTGCAG”, 11500 fluorescence intensity (a.u.).
The value for “TTAAATTTAATTCCTCGCGAGGTGCTCCCACACTGTGGAACGGAGTCACCTAGTGCAG” was 10500 fluorescence intensity (a.u.).
On to “TGTAATTAGTACTTGAAAGAATTAACTTGTTGAACATGATCGGAGTCACCTAGTGCAG”, for which the binding signal was 36100 fluorescence intensity (a.u.).
Consider “AGTAGGATTGGTGTTGATGGCCCAAGCAGCTCTAAGGCGACGGAGTCACCTAGTGCAG”, for which the binding signal is 8570 fluorescence intensity (a.u.).
For “TTCGCCAATCTAGTAATTAATCTAGTACATGCGTTGTTCCCGGAGTCACCTAGTGCAG” the value was 15800 fluorescence intensity (a.u.); for “AAAGATTGAACATCCTTTAGTAATATCAAGGGTGTGTTTACGGAGTCACCTAGTGCAG”, 14100 fluorescence intensity (a.u.); for “AGTTCGTAATTAAAATGTGGTACGGTAAAGTGAATCAACCCGGAGTCACCTAGTGCAG”, 7060 fluorescence intensity (a.u.).
The value for “GATCAATGATATATACAATCTTATTAGCAAGATACGCATCCGGAGTCACCTAGTGCAG” was 3640 fluorescence intensity (a.u.); that for “ATTTATAATACTAAATTAGTTAATTAAATATATTTTCATACGGAGTCACCTAGTGCAG” was 8210 fluorescence intensity (a.u.); that for “TCGTTGTGACTGTGATGAGAACTATGTGCCGCCACAAGCTCGGAGTCACCTAGTGCAG” was 4260 fluorescence intensity (a.u.).
For “TTCATAACTACAGTAAACTGACCAACGCAAACCGCATCGACGGAGTCACCTAGTGCAG” the value was 4500 fluorescence intensity (a.u.).
Regarding “TGTTGTTGTGGTGGTGGTGGTGGTGGTAGTGCGTGAGTGACGGAGTCACCTAGTGCAG”, the binding signal was 7420 fluorescence intensity (a.u.).
For “ATGGGTGATTAATCCTAGAATAATGTATCTAGACAGAATCCGGAGTCACCTAGTGCAG” the value was 4120 fluorescence intensity (a.u.); for “GGGGATTAACTGCCGTTGTATAGATCAGACAGATAGACGACGGAGTCACCTAGTGCAG”, 7980 fluorescence intensity (a.u.); for “CGTGCTAATTAGGATTATTATTTGCGACTAATCACTACTCCGGAGTCACCTAGTGCAG”, 38200 fluorescence intensity (a.u.).
The value for “GCGAAATTAGTAATTTGTTTTGTTATTAATCTATGTTTAACGGAGTCACCTAGTGCAG” was 36400 fluorescence intensity (a.u.); that for “AATTCTAAAATGATTAAACTTAAGCCATATATAATCACACCGGAGTCACCTAGTGCAG” was 4710 fluorescence intensity (a.u.).
For “CTTAACTGTTATATTCTTTATGTTGGAATCTGTCCACGTACGGAGTCACCTAGTGCAG” the value was 14800 fluorescence intensity (a.u.); for “ACTTCAGGAGATTGAAAACATTAGCTTTGGATCAGAGTGTCGGAGTCACCTAGTGCAG”, 6890 fluorescence intensity (a.u.).
As to “TTTCTCAATGATTATATGGGTGAATTGCAGAGAATATACTCGGAGTCACCTAGTGCAG”, the binding signal was 14400 fluorescence intensity (a.u.).
“GTATCAAATCTTGCCCATGATTTGACACTACCAATGATTTCGGAGTCACCTAGTGCAG”: the binding signal was 5680 fluorescence intensity (a.u.).
The value for “TATGATTATTAGAAATTTTAACAATTTTAAATCTTGCATGCGGAGTCACCTAGTGCAG” was 26300 fluorescence intensity (a.u.).
For “GATAAATTGACAATATTACCAAAATTTTAGTAAGATTGGCCGGAGTCACCTAGTGCAG” the value was 64900 fluorescence intensity (a.u.).
“TACTAGTACTAGTTAATTGGGCTTGGAAAAGACGTACAGGCGGAGTCACCTAGTGCAG”: the binding signal is 3380 fluorescence intensity (a.u.).
Regarding “CTTGACTGGCTTGTTCTCTCTCTCTCCCAGTAACCGATCTCGGAGTCACCTAGTGCAG”, the binding signal is 37300 fluorescence intensity (a.u.).
The value for “CCCCTTTGATTAGACCGAAAGCATCTTCTTTTGACAGTCACGGAGTCACCTAGTGCAG” was 17400 fluorescence intensity (a.u.).
For “TCTCTCTCTAATTAGTGGCTGAGCATTTAGAAGAGGTGGCCGGAGTCACCTAGTGCAG” the value was 11000 fluorescence intensity (a.u.).
For “ATCGGATTGGATCGGATATGGAGAGGAGGGAGGACGCGCTCGGAGTCACCTAGTGCAG” the value was 3710 fluorescence intensity (a.u.); for “AATGTGATTGTCCACCCTGCAGCAACAAGCACCTTGAGCACGGAGTCACCTAGTGCAG”, 19600 fluorescence intensity (a.u.).
